Experimental findings from patent EP4763988A1 (Minghui Pharmaceutical (Hangzhou) Ltd., dated 2025) are described below.

Where two headings read alike, the source gives them in different places.

Assay [1] addresses T1, Human CDCP1, His Tag (KACTUS, Cat.No. CDC-HM101) (human, UniProt Q9H5V8 30-667, limits assumed).
T1 construct: Bought protein coated on ELISA plates; also called human CDCP1 antigen; CDCP1 antigen; not shown: His tag
T1 sequence (looked up): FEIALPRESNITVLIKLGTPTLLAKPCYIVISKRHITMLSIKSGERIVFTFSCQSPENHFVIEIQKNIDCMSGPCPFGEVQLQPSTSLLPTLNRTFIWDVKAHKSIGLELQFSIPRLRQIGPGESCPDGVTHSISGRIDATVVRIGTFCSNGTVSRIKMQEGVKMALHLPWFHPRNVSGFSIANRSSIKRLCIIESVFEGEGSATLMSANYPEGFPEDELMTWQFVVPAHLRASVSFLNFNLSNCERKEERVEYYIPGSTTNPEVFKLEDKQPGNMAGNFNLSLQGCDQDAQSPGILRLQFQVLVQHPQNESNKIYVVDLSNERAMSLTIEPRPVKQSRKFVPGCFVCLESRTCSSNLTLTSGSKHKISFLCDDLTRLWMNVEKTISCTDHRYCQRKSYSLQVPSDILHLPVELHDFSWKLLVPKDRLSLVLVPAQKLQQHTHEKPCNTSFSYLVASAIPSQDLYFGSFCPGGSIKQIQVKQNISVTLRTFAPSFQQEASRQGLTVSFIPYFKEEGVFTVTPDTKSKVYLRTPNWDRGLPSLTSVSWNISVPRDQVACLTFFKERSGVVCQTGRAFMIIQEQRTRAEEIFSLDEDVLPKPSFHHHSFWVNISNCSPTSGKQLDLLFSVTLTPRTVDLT
The assay is described as follows: ELISA, plate-coated CDCP1 His Tag 0.5 ug/mL, four-parameter fit.

The target of assay [2] is T2, human CDCP1 endogenously expressed on tumor cells (HCT116, SW480, HT-29, LNCaP) (human, UniProt Q9H5V8 30-836).
T2 construct: whole, on cells; also called fl-CDCP1
T2 sequence (looked up): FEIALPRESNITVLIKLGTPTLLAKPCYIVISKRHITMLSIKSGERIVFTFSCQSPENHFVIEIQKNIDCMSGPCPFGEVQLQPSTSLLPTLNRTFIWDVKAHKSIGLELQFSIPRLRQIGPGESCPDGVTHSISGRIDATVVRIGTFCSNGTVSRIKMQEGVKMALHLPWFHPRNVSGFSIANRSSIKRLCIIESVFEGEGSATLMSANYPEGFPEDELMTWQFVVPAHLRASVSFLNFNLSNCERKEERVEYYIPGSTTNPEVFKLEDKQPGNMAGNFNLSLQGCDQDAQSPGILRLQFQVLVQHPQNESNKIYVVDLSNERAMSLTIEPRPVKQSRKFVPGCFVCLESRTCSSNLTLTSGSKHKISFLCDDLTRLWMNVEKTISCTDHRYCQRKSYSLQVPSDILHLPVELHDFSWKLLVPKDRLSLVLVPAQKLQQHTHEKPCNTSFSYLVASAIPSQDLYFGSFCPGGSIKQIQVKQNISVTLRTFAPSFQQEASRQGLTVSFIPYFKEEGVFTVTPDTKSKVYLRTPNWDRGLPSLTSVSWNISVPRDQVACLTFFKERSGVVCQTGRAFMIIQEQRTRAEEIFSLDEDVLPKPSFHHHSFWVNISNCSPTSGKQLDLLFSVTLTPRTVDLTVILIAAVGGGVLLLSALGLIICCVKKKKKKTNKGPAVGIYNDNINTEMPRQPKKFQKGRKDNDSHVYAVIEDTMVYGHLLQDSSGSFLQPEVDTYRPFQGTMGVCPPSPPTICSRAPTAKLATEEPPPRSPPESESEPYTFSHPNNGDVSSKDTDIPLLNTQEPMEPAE
The assay is described as follows: flow cytometry on HCT116 cells endogenously expressing human CDCP1.

Assay [3] concerns the target T2, human CDCP1 endogenously expressed on …. In words: cell-based or functional assay.
The target of assay [4] is T1, Human CDCP1, His Tag (KACTUS, Cat.No. …). In words: ELISA, plate-coated CDCP1 His Tag 0.5 ug/mL, four-parameter fit. This is another data set of the same source. For orientation: In an ELISA, binding on a coated surface is turned into a signal by an enzyme label.
Assay [5] concerns the target T2, human CDCP1 endogenously expressed on …. The assay is described as follows: flow cytometry on HT-29 cells endogenously expressing human CDCP1. (In general: Flow cytometry measures light scatter and fluorescence of single cells or particles in a stream.)
Assay [6] has the same target. The assay is described as follows: flow cytometry on LNCaP cells endogenously expressing human CDCP1.
For assay [7] the target is unchanged. In words: flow cytometry on SW480 cells endogenously expressing human CDCP1.
For assay [8] the target is unchanged. In words: flow cytometry on HCT116 cells endogenously expressing human CDCP1. The source holds these as a separate data set.
Assay [9] shares this target. Described as above. The source holds these as a separate data set.
Assay [10] addresses T1, Human CDCP1, His Tag (KACTUS, Cat.No. …). The assay is described as follows: ELISA, plate-coated Human CDCP1 His Tag 0.5 ug/mL, four-parameter fit.
The target in assay [11] is T3, rhesus monkey CDCP1, His Tag (KACTUS, Cat.No. CDC-CM101) (rhesus monkey, UniProt F6TPM5 30-667).
T3 construct: also called Rhesus monkey CDCP1 antigen; not shown: His tag
T3 sequence: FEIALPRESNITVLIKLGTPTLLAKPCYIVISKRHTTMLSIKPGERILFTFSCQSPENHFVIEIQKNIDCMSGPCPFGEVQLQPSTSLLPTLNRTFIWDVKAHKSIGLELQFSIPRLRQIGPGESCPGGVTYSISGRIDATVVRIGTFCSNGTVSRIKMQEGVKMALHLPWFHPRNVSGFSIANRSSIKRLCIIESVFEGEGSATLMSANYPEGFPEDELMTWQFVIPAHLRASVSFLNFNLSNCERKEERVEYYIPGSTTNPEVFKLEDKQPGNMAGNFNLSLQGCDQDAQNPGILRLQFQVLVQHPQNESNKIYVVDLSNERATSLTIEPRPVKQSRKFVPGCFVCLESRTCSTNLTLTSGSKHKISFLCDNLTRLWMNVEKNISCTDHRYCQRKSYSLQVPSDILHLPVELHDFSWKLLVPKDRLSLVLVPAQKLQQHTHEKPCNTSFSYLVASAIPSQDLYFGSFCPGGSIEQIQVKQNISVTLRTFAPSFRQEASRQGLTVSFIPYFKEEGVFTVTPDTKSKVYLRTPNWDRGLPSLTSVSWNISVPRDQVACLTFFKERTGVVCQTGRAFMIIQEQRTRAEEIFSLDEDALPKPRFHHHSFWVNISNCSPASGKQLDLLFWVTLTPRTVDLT
The assay is described as follows: ELISA, plate-coated rhesus monkey CDCP1 His Tag 0.5 ug/mL, four-parameter fit.

The target in assay [12] is T1, Human CDCP1, His Tag (KACTUS, Cat.No. …). The assay is described as follows: ELISA, plate-coated CDCP1 His Tag 0.5 ug/mL, four-parameter fit. This is another data set of the same source.
The target of assay [13] is T2, human CDCP1 endogenously expressed on …. The assay is described as follows: flow cytometry on HCT116 cells endogenously expressing human CDCP1. The source holds these as a separate data set.
Assay [14] shares this target. The assay is described as follows: cell-based or functional assay. This is another data set of the same source.

B1: MHAB10-16-6 (Fc fusion)
chain: EVQLVESGGGLVQPGGSLRLSCAASGSDVSANGMVWHRQAPGKQREWVAVISSSGSTNYADSVKGRFTISRDNSKNTMYLQMNSLRPEDTAVYLCGVAHYGQTYWGKGTLVTVSS[human IgG1 Fc with changes cut from this listing]
notes: Humanized nanobody-Fc fusion, first round; MW printed 76kDa
In [1], B1 gave an EC50 of 0.00456 µg/mL, a Top of 2.06 OD450 and a bottom of 0.0557 OD450. For the same molecule, in assay [2], a half-maximal response (EC50) required 0.0661 µg/mL, the Top was 63200 MFI and the bottom came to 1090 MFI.

B2: MHAB10-16-14 (Fc fusion)
chain: QLQLVESGGGLVQPGGSLRLSCAASGSDVSANGMVWHRQAPGKGREWVAVISSSGSTNYADSVKGRFTISRDSDKNTMYLQMNSLRPEDTAVYYCGVAHYGQTYWGKGTLVTVSS[human IgG1 Fc with changes cut from this listing]
notes: Humanized nanobody-Fc fusion, second round
Turning to B2, the “EC50 (pM), endocytosis-mediated cell killing (Fab-ZAP, HCT116 cells)” value in assay [3] was found to be 21.7 pM. The EC50 came to 0.00428 µg/mL in assay [4]; 0.153 µg/mL in assay [5]; 0.206 µg/mL in assay [6]; 0.0958 µg/mL in [7]; 0.0809 µg/mL in [8]; 0.139 µg/mL in [9]. For the same molecule, the EC50 in [10] was 3.37 pM; in [11], 4.05 pM. The Top in assay [4] was determined as 1.58 OD450; in [8], 52900 MFI. Besides, the bottom was determined as 0.0514 OD450 in assay [4] and 819 MFI in [8].

B3: MHAB10-16-17 (Fc fusion)
chain: QLQLVESGGGLVQPGGSLRLSCAASGSDVSANGMVWHRQAPGKQREWVAVISSSGSTNYADSVKGRFTISRDSDKNTMYLQMNSLRPEDTAVYYCGVAHYGQTYWGKGTLVTVSS[human IgG1 Fc with changes cut from this listing]
notes: as for B2
With B3, in [12], the EC50 amounted to 0.00537 µg/mL, the Top came to 1.56 OD450 and the bottom was found to be 0.0479 OD450. Besides, in assay [13], the EC50 worked out at 0.119 µg/mL, the Top was 52900 MFI and the bottom came to 889 MFI.

B4: MHAB10-16-8 (Fc fusion)
chain: EVQLVESGGGLVQPGGSLRLSCAASGSDVSANGMVWHRQAPGKQREWVAVISSSGSTNYADSVKGRFTISRDSDKNTMYLQMNSLRPEDTAVYYCGVAHYGQTYWGKGTLVTVSS[human IgG1 Fc with changes cut from this listing]
notes: as for B1
As to B4, in assay [1], the EC50 amounted to 0.00526 µg/mL, the Top was 2.06 OD450 and the bottom was 0.0483 OD450. In addition, in assay [2], the EC50 is 0.0781 µg/mL, the Top is 62200 MFI and the bottom is 1010 MFI.

B5: MHAB10-16-16 (Fc fusion)
chain: QLQLVESGGGLVQPGGSLRLSCAASGSDVSANGMVWHRQAPGKQREWVAVISSSGSTNYADSVKGRFTISRDNSKNTMYLQMNSLRPEDTAVYYCGVAHYGQTYWGKGTLVTVSS[human IgG1 Fc with changes cut from this listing]
notes: as for B2
In assay [12], B5 gave an EC50 of 0.00547 µg/mL, a Top of 1.56 OD450 and a bottom of 0.0491 OD450. In assay [13], this molecule gave an EC50 of 0.0922 µg/mL, a Top of 53400 MFI and a bottom of 864 MFI.

B6: MHAB10-16-7 (Fc fusion)
chain: EVQLVESGGGLVQPGGSLRLSCAASGSDVSANGMVWHRQAPGKQREWVAVISSSGSTNYADSVKGRFTISRDNSKNTMYLQMNSLRPEDTAVYYCGVAHYGQTYWGKGTLVTVSS[human IgG1 Fc with changes cut from this listing]
notes: as for B1
For B6, in [14], the “Bottom, endocytosis-mediated cell killing (Fab-ZAP, HCT116 cells)” value was found to be 14.2%; the “EC50 (pM), endocytosis-mediated cell killing (Fab-ZAP, HCT116 cells)” value came to 24.3 pM; the “Top, endocytosis-mediated cell killing (Fab-ZAP, HCT116 cells)” value turned out to be 77.5%. In assay [1], a half-maximal response (EC50) required 0.00485 µg/mL, the Top is 2.06 OD450 and the bottom came out at 0.0492 OD450. In assay [2], the EC50 worked out at 0.0829 µg/mL, the Top was found to be 62300 MFI and the bottom worked out at 1210 MFI.

The EC50 is the concentration giving half of the maximal effect.
